The other results are listed elsewhere or left out. These are noisy estimates, calculated here from bound and input reads.
biological target: T1, Pho4 (S. cerevisiae) (UniProt P07270); experiment: relative binding free energy (BET-seq); higher = weaker binding; details: reference: library average
T1 sequence: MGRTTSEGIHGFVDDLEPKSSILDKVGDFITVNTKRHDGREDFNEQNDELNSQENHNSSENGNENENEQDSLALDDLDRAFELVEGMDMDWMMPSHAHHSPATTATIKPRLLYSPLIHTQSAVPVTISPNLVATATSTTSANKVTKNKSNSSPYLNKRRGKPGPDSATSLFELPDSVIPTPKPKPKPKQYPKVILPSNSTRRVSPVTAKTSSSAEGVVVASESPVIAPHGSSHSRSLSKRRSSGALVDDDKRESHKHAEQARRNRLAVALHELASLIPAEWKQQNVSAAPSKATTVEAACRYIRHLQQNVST

Sequence	relative binding free energy [kcal/mol]
AGAGTCACGTGATTGA	0.21
GTGTTCACGTGGTTGC	0.27
ACTAGCACGTGTAGGT	0
GGGGGCACGTGTCAAG	-0.08
AGTGGCACGTGGAGTG	-0.06
CTTTCCACGTGTGTGG	0.11
AAAGCCACGTGTGGTG	-0.06
ATGGTCACGTGGGTCG	0.03
AGACTCACGTGTGTGA	0.37
TATCGCACGTGTAATA	0.25
ATTTACACGTGAGGCG	0.27
GGTTGCACGTGGCGTG	0.13
ATTTACACGTGGAGTT	0.27
GCGGTCACGTGTGGAT	0.29
ATGGTCACGTGGTGAG	0.06
GTCTGCACGTGGGTTC	-0.03
AGAGTCACGTGTAGAT	0.2
TGGAGCACGTGGGAGT	-0.13
TTGGGCACGTGCATAG	-0.36
GACTGCACGTGTTTAT	0.16
TGAATCACGTGAGGGC	0.26
GGTATCACGTGGTGCA	0.04
GGTTGCACGTGAATTT	0.27

Sequence	relative binding free energy [kcal/mol]
GTGGTCACGTGTGTAC	0.2
AGCTGCACGTGGAGTA	0.11
GTGGGCACGTGATGTC	-0.02
TGTGCCACGTGACTTG	0.08
TGTTGCACGTGCGTTA	-0.06
TTTCGCACGTGGTAGT	-0.16
GGCTACACGTGGTATT	0.02
GGTGTCACGTGTCGGA	0.19
CTTTTCACGTGGCTGT	0.17
CGGGCCACGTGTCGGG	0.01
TGTGACACGTGTCTAT	-0.02
GGTAGCACGTGTGCGC	-0.02
TAGAGCACGTGGTATG	-0.2
GCTAGCACGTGTGTGT	-0.13
GTTTACACGTGATATG	0.24
TGTCACACGTGCGGGG	0.1
AGAGGCACGTGTTCGT	-0.11
GCTTGCACGTGAGTTT	0.29
AAGGTCACGTGATCGT	0.2
CGTGTCACGTGCTGTG	0.15
GTCAACACGTGTTGGG	0.13
GCTTGCACGTGGTCAG	-0.02
GTTGTCACGTGTAGGA	0.17

Sequence	relative binding free energy [kcal/mol]
AGATGCACGTGAGATG	0.07
CGTGGCACGTGGGTGG	-0.36
TTAAGCACGTGGAGAT	-0.02
ATATTCACGTGGATGC	0.28
GTGGGCACGTGCGCTT	-0.11
AATTACACGTGGATTA	0.19
ATGGTCACGTGCTGTG	0.09
CATAACACGTGTGAGT	0.2
ACTATCACGTGTCGGT	0.32
AGTGACACGTGTGTCT	0.05
GAAGTCACGTGTAGAG	0.35
GTCAGCACGTGGGAGT	-0.12
TGCTGCACGTGTGTGC	0.07
TAGGACACGTGGGGGA	-0.24
TTGTTCACGTGAAGCT	0.35
TTCGCCACGTGTAGGT	0.01
TATTGCACGTGCGTCG	0.04
GGCGTCACGTGGCATG	0.16
CTTGGCACGTGCTATG	-0.13
AGGATCACGTGTTTCT	0.13
GGTAACACGTGGGTTT	-0.05
TGTTACACGTGGAAAT	0.27
TTGTCCACGTGTTAGA	-0.04

Sequence	relative binding free energy [kcal/mol]
TGGTCCACGTGCGGTA	-0.01
TCTTGCACGTGGGGAC	-0.07
TCTTTCACGTGAGTTA	0.34
GGTTACACGTGGTCCG	0.1
GAATGCACGTGGGGTG	-0.16
TGCGGCACGTGGTGAT	-0.18
TGAGTCACGTGTACGG	0.17
GAGAACACGTGTGGGC	0.11
CGGGCCACGTGGAATG	0.08
TTTGACACGTGAGGGT	0.17
CGTTTCACGTGGGTCG	0.05
GGAAGCACGTGGGTAT	-0.25
GTTATCACGTGCGATT	0.15
TGCTGCACGTGGCATG	-0.07
GTGAGCACGTGGTTCT	-0.01
ATAGACACGTGGTATA	-0.08
CGAATCACGTGGGGAG	0.11
TTGGTCACGTGTGTAA	0.17
GTTAGCACGTGTTTTT	0.06
ATAGACACGTGTGGAT	-0.02
TGAGGCACGTGTTTCA	-0.14
TTAAACACGTGCGGGT	0.11
TGTGACACGTGTGAAA	0.13

Sequence	relative binding free energy [kcal/mol]
TTCTTCACGTGGTCTG	0.03
GGGCTCACGTGAGTGA	0.24
GTTATCACGTGGCTGG	0.21
TTGGGCACGTGTGTAA	-0.1
TTGTCCACGTGCGGGT	-0.1
CGCATCACGTGGGGGG	0
TGGAACACGTGTTTCT	0.02
GGTTACACGTGCTGTT	0.1
TTTTTCACGTGCCATG	0.29
TATATCACGTGTCGTT	0.13
GTGCTCACGTGGGATA	0.33
TCGGTCACGTGTTAAG	0.14
GATTACACGTGGTGAT	0.01
CAAGTCACGTGGGTTG	-0.14
ATATGCACGTGGCTTA	-0.22
CTGTGCACGTGGGCTT	-0.21
TTGGACACGTGCCGTT	0.01
AGATTCACGTGCGTAT	0.42
TGGGGCACGTGCTCGG	-0.17
ACGTTCACGTGTAGTA	0.35
GTGGTCACGTGTGAGA	0.26
GGTTTCACGTGATTTC	0.43
GTACGCACGTGTGTGG	-0.17

Reference: the BET-seq Pho4 binding data (Le et al. 2018)
